# Assay results from PubChem BioAssay AID1745853 (National Center for Advancing Translational Sciences (NCATS), 2022).
# The other results are listed elsewhere or left out. Shown are side measurements of this screen, not its main read-out; they come without a call.
# Key:
# Experiment in all cases: Primary Screen for Target Class Profiling of Small Molecule Inhibitors of Methyltransferases
# [1] = molecular target: Glycine N-methyltransferase (Homo sapiens) (UniProt Q14749); details: purified enzyme, MTase-Glo SAH luminescence; measured here: GNMT inhibition; at 40 µM; stronger effect = lower value
# Outline: (§1)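 Each enzyme was reacted with SAM and its substrate, with compounds tested once at 40 uM; SAH formed was read by MTase-Glo luminescence.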
# [2] = molecular target: Guanidinoacetate N-methyltransferase (Homo sapiens) (UniProt Q14353); details: purified enzyme, MTase-Glo SAH luminescence; measured here: GAMT inhibition; at 40 µM; stronger effect = lower value
# Outline: as §1
# [3] = molecular target: Histamine N-methyltransferase (Homo sapiens) (UniProt P50135); details: purified enzyme, MTase-Glo SAH luminescence; measured here: HNMT inhibition; at 40 µM; stronger effect = lower value
# Outline: as §1
# [4] = molecular target: Nicotinamide N-methyltransferase (Homo sapiens) (UniProt P40261); details: purified enzyme, MTase-Glo SAH luminescence; measured here: NNMT inhibition; at 40 µM; stronger effect = lower value
# Outline: as §1
# [5] = molecular target: Phenylethanolamine N-methyltransferase (Homo sapiens) (UniProt P11086); details: purified enzyme, MTase-Glo SAH luminescence; measured here: PNMT inhibition; at 40 µM; stronger effect = lower value
# Outline: as §1
# % is set by controls: 0 for no effect and ±100 for the full control effect.
SMILES,"activity change, negative = inhibition [1] [%]","activity change, negative = inhibition [2] [%]","activity change, negative = inhibition [3] [%]","activity change, negative = inhibition [4] [%]","activity change, negative = inhibition [5] [%]"
COCc1nc(-c2cccc(NC(=O)CC[C@H]3NC(=O)c4ccccc4NC3=O)c2)n[nH]1,-6.49,-0.197,-0.425,-5.13,-3.92
COC(=O)c1cc2n(n1)CC(C)(C(=O)NC1CCCCC1)N(c1ccccc1F)C2=O (centres undefined),4.28,0.252,3.68,5.79,5.25
OC1(CN2CCN(CCc3ccccn3)CC2)CCCNC1 (centres undefined),0.155,0.961,-1.66,1.23,-2.78
Cc1cnc(C(=O)N[C@@H]2CCC[C@@H]2C(=O)NCc2cc(F)ccc2F)cn1,0.511,1.38,2.08,-4.82,-3.96
COc1ccc(-c2nnn3c2nc(NCc2ccccc2)c2ccccc23)cc1,-0.31,4.08,2.65,3.99,-3.45
NC(=O)C1CCN(C(=O)CCc2nnc3n(Cc4ccc(Cl)cc4)c(=O)c4ccccc4n23)CC1,-2.55,0.133,-1.82,6.77,-3.93
Cc1ccc(C)c(N2CCN(C(=O)c3ccc4c(=O)[nH]c5c(C(=O)NC(C)C)sc(=S)n5c4c3)CC2)c1,-40.1,1.31,-16,-65.1,-7.2
COc1cccc(CNC(=O)CCc2nnc3n(Cc4ccc(Cl)cc4)c(=O)c4ccccc4n23)c1,-9.35,2.88,-2.77,3.54,-6.83
CNC(=O)c1cc[nH]c1C1CCCN(Cc2ccc3c(c2)CCO3)C1 (centres undefined),-0.434,-1.68,-16,-5.71,0.904
Cn1nccc1C(=O)N1C[C@@H](F)C[C@H]1C(=O)N1CCCCC1,-4.88,-6.1,-2.5,-13.2,10.9
Cn1cccc1C(=O)N[C@H]1C[C@@H]2C(=O)N[C@H]3CCN(C(=O)Cc4cccs4)[C@@H]3C(=O)N2C1,-3.89,-1.77,-0.817,-3.15,-3.74
COc1ccc(OC)c(CNS(=O)(=O)c2ccc3c(c2)n(C)c(=O)n3C)c1,-3.7,3.69,-3.84,-10.5,-4.52
Cn1c(=O)c2ccc(C(=O)NC3CCCC3)cc2n2c(=O)n(Cc3ccc(F)cc3Cl)nc12,-1.15,-10.4,10.4,-4.01,-8.48
COc1ccc(-c2ccc3c(N4CCOCC4)nc(N4CC(C)OC(C)C4)nc3n2)cc1CO (centres undefined),-14.4,-8.75,-17.2,-19.8,-40.8
CN(Cc1cn(C)c2ccccc12)C1CCc2nn(CC3CC3)c(=O)n2CC1 (centres undefined),-2.28,-0.184,-2.27,-7.6,-5.7
COC(=O)c1cc2n(n1)CC(C)(C(=O)NC1CCC(C)CC1)N(c1cccc(OC)c1)C2=O (centres undefined),5.36,0,5.42,9.5,4.39
COc1cccc(-c2ccc(CN3CCCC3C(=O)N3CCN(c4ncccn4)CC3)cc2)c1 (centres undefined),-6.61,1.37,-0.858,-9.88,2.96
Cc1ccc(N2C(=O)CSc3c(c4ccccc4n3C)C2C(=O)NCCC(C)C)cc1Cl (centres undefined),5.9,0,6.32,-0.501,2.23
Clc1cccc(N2CCN(c3nc4ccccc4c4nc(-c5cccnc5)nn34)CC2)c1,,-3.23,,-8.21,3.81
Cn1c(CNc2ccc(C(=N)N)cc2)nc2cc(C(=O)N(CCC(=O)O)c3ccccn3)ccc21,3.86,3.67,-60.9,-15.2,-4.66

SMILES,"activity change, negative = inhibition [1] [%]","activity change, negative = inhibition [2] [%]","activity change, negative = inhibition [3] [%]","activity change, negative = inhibition [4] [%]","activity change, negative = inhibition [5] [%]"
O=C(c1ccoc1)N1CCC2(CC1)CC(CO)N(C(=O)c1ccccc1)C2 (centres undefined),-0.107,-0.665,0.97,0.556,2.59
COc1ccccc1CNC(=O)C1(C)Cn2cnc(C(=O)NC3CC3)c2C(=O)N1C1CC1 (centres undefined),-5.52,2.94,-1.18,-3.48,-3.83
C=CCNC(=O)c1cnn2c1CN(C(=O)OCc1ccccc1)CC2,-8.02,-10.7,-4.03,-10.3,-2.5
CC(=O)[C@H]1CCC2C3CC=C4C[C@@H](OS(=O)(=O)O)CC[C@]4(C)C3CC[C@@]21C (some centres undefined),-0.516,10.5,7.02,-4.58,2.19
CCC(C)C(=O)OC1CC(O)C23C4OCC5(C(O)CC2C1(C)C(O)O4)C3C(=O)C(O)C1(C)C(O)(c2ccoc2)CC2OC251 (centres undefined),-2.29,-4.22,-8.32,-14.9,-2.18
CC/C=C\C/C=C\C/C=C\CCCCCCCC(=O)OCC(O)COC1OC(CO)C(O)C(O)C1O (centres undefined),0,9.86,4.94,-8.79,5.42
Cc1ccc(C(=O)N[C@H]2CO[C@H]3[C@@H]2OC[C@@H]3n2cc(-c3ccccc3)nn2)cc1,-10.9,-7.96,-4.16,-13.8,-7.8
CCCn1c(=O)c2ccc(C(=O)NC(C)CC)cc2n2c(=O)n(CC(=O)c3ccccc3)nc12 (centres undefined),1.54,1.58,4.38,-0.241,4.61
Cn1nc(C2CCCC2)cc1NC(=O)C1CC1,-1.1,0.715,1.92,-2.33,0.277
COC(=O)NC1CCCN(Cc2ccc(-c3cncnc3)cc2)C1 (centres undefined),-6.36,-0.231,-13.6,-3.14,-10.6
CC1CCC(NC(=O)C2(C)Cn3c(cc4occc43)C(=O)N2CC(C)c2ccccc2)CC1 (centres undefined),-5.36,3.97,-1,-1.82,-2.6
CC(C)(O)C1Cc2c(ccc(C(=O)CCc3ccccc3)c2O)O1 (centres undefined),-6.69,-27.4,-3.09,-42.2,-9.11
COc1ccc(CNC(=O)Cn2nc3n(CCc4ccccc4)c(=O)c4ccccc4n3c2=O)cc1,-1.03,3.41,2.19,2.03,-0.712
CC(C)Cn1c(=O)c2ccc(C(=O)NC(C)C)cc2n2c(=O)n(CC(=O)c3ccccc3)nc12,2.56,0.577,6.31,-3.33,3.63
COc1ccc2cc3n(c2c1)CC(C)(C(=O)NC1CCCCC1)N(Cc1ccc2c(c1)OCO2)C3=O (centres undefined),0.818,0.807,0.053,-2.21,-3.85
O=C1CN(Cc2ccccc2)S(=O)(=O)c2ccccc2N1Cc1ccccc1,15.3,4.6,12.7,4.16,11
CCOc1ccc(CCN2C(=O)c3c(C(=O)OC)ncn3CC2(C)C(=O)NC2CCCCC2)cc1 (centres undefined),-1.34,1.43,4.71,1.5,0.951
C[C@@H](Oc1ccc2[nH]nc(/C=C/c3cnn(CCO)c3)c2c1)c1c(Cl)cncc1Cl,,11.4,,-9.11,-6.45
CCc1nc(NC2CCCC2)ncc1C(=O)O,-6.04,-7.75,-3.13,-8.77,-1.59
CC(C)(C=O)Cc1cc(C(C)(C)C)c(O)c(C(C)(C)C)c1,-2.87,15.2,-0.998,-5.88,6.32

SMILES,"activity change, negative = inhibition [1] [%]","activity change, negative = inhibition [2] [%]","activity change, negative = inhibition [3] [%]","activity change, negative = inhibition [4] [%]","activity change, negative = inhibition [5] [%]"
CC(C)OCCCNC(=O)C1(C)Cn2c(cc3ccccc32)C(=O)N1Cc1ccc(OC(C)C)cc1 (centres undefined),3.18,3.21,5.33,0.814,-1.13
CC(C)=C/C=C\[C@H](C)[C@H]1CC[C@]2(C)C[C@@H]3C(C)=CC(=O)C3/C(CO)=C\C[C@@H]12 (some centres undefined),-4.83,4.58,8.52,-12.4,-7
CCCOc1ccc(CN2C(=O)c3cc4ccccc4n3CC2(C)C(=O)NC2CCCCC2)cc1 (centres undefined),-1.09,0.172,4.33,1.61,1.28
Cc1ccc(NS(=O)(=O)c2cc3c(cc2F)NC(=O)CC3)cc1Cl,,3.37,,-18.7,-5.06
COc1ccc(N2C(=O)c3cc4sccc4n3CC2(C)C(=O)NC2CCC(C)CC2)cc1Cl (centres undefined),-2.23,4.1,-1.67,-2.16,-5.16
COc1ccc(CN2CCOC[C@H]2c2ncc(-c3cccnc3)[nH]2)cc1,-2.39,-3.12,-1.93,-4.7,-11.1
COc1ccccc1CNC(=O)C1c2c(n(C)c3ccccc23)SCC(=O)N1c1ccccc1F (centres undefined),1.71,1.21,1.08,2.09,6.32
CCCn1c(=O)c2ccc(C(=O)NC(C)CC)cc2n2c(=O)n(Cc3cccc(F)c3)nc12 (centres undefined),4.76,0.435,8.24,0.981,3.73
CCOC(=O)c1cc2n(n1)CC(C)(C(=O)NCc1ccccc1)N(c1cc(C)ccc1C)C2=O (centres undefined),-1.2,6.47,0.269,-3,-4.5
Cc1ccc([C@@H]2CN(C(=O)CN3CCOC3=O)C[C@H]2NC(=O)C2CC2)cc1,-4,-6.25,-2.77,-10.7,-5.41
COc1ccc2cc3n(c2c1)CC(C)(C(=O)NCC1CCCO1)N(CCc1ccc(Cl)cc1)C3=O (centres undefined),5.37,6.08,9.3,8.82,0.809
COc1cccc(CNC(=O)c2cc3n(n2)CC(C)(C(=O)NCc2ccc(C)cc2)N(C)C3=O)c1 (centres undefined),8.11,3.54,8.48,1.54,6.72
Cn1ncnc1[C@@H]1c2n[nH]c(=O)c3cc(F)cc(c23)N[C@H]1c1ccc(F)cc1,-4.73,-6.95,-0.101,-19.1,-0.571
CNC(=O)c1ccccc1Nc1nc(Nc2ccc(N3CCNCC3)cc2)ncc1Cl,-61.5,-6.26,-44.5,-60.9,-24.3
CCc1ccc(S(=O)(=O)c2nnn3c2nc(NCC2CCCO2)c2cc(Cl)ccc23)cc1 (centres undefined),-9.22,4.01,-3.34,1.35,-7.31
Cc1ccc(C(=O)C(C)n2nc3n(C(C)C)c(=O)c4ccc(C(=O)NCC(C)C)cc4n3c2=O)cc1C (centres undefined),6.44,0.573,9.73,4.39,7.8
COc1ccc(Cc2ncc3c(n2)CN(C(=O)c2ccc(OC)c(O)c2)C3)cc1,-6.29,0.559,-1.05,-3,1.97
O=C(Cn1ccc2cc(S(=O)(=O)N3CCCCC3)ccc21)NCC1CCCO1 (centres undefined),6.62,1.63,6.69,4.25,3.85
CCCN1C(=O)c2c(C(=O)NCc3ccco3)ncn2CC1(C)C(=O)NCCC(C)C (centres undefined),2.13,0.397,4.46,4.52,4.95
